Data published in the antibiotic and cytotoxicity screens of Wong et al. (2023).
Some of the results follow.

What was measured:
HSkMC = human skeletal muscle cells; test: cytotoxicity call (relative viability < 0.9); settings: 10 µM
HepG2 = test: cytotoxicity call (relative viability < 0.9); settings: 10 µM
S. aureus RN4220 = test: growth inhibition call (relative growth <= 0.2); settings: 50 µM

Structure (SMILES)	cytotoxicity call (HSkMC)	cytotoxicity call (HepG2)	growth inhibition call (S. aureus RN4220)
COc1ccccc1-c1ccc2c(c1)O[C@H](CN(C)S(=O)(=O)c1ccccc1)[C@H](C)CN([C@@H](C)CO)S2(=O)=O	inactive	inactive	inactive
[N-]=[N+]=NCc1ccccc1C[C@]1(C(=O)N2CCCCC2)N=C(c2ccc(OCCCO)cc2)O[C@H]1c1ccccc1	inactive	inactive	inactive
CC/C=C\C/C=C\C/C=C\CCCCCCCCCC(=O)O	inactive	inactive	inactive
O=C(C[C@H]1C[C@@H]2c3cc(NC(=O)c4ccc5c(c4)OCO5)ccc3O[C@@H]2[C@H](CO)O1)NCC(F)(F)F	inactive	inactive	inactive
C[C@H]1CN([C@@H](C)CO)C(=O)c2cc(NC(=O)CCCCCC(=O)Nc3ccccc3N)ccc2O[C@@H]1CN(C)C(=O)Nc1ccc(C(F)(F)F)cc1	inactive	inactive	inactive
C[C@H]1CCCCO[C@H](CN(C)CC2CCCCC2)[C@@H](C)CN([C@@H](C)CO)C(=O)c2cc(NC(=O)Cc3ccccc3)ccc2O1	inactive	active	inactive
O=C(C[C@H]1CC[C@H]2[C@@H](COC[C@@H](O)CN2S(=O)(=O)c2ccc(F)cc2)O1)N1CCc2ccccc2C1	inactive	inactive	inactive
O=C(C[C@H]1C[C@H]2c3cc(NS(=O)(=O)c4ccc(F)cc4)ccc3O[C@H]2[C@H](CO)O1)NCCN1CCCCC1	inactive	inactive	inactive
C[C@@H]1CN([C@H](C)CO)C(=O)CCCn2nncc2CO[C@@H]1CN(C)S(=O)(=O)c1ccc(Oc2ccccc2)nc1	inactive	inactive	inactive
CO[C@H]1CN(C)C(=O)c2cc(NS(=O)(=O)CC(F)(F)F)ccc2OC[C@@H](C)N(C(=O)c2ccc3c(c2)OCO3)C[C@H]1C	inactive	inactive	inactive
CCCCCC(=O)OC1(C(C)=O)CCC2C3CCC4=CC(=O)CCC4(C)C3CCC21C (configuration not stated)	inactive	inactive	inactive
C[C@@H]1CCCCO[C@H](CN(C)CC2CCCCC2)[C@@H](C)CN([C@H](C)CO)C(=O)c2cc(NC(=O)C3CCCCC3)ccc2O1	inactive	inactive	inactive
CC(C)(O)c1coc(S(=O)(=O)NC(=O)Nc2c3c(cc4c2CCC4)CCC3)c1	inactive	inactive	inactive
C[C@H]1CN([C@@H](C)CO)C(=O)Cc2cc(NS(=O)(=O)c3ccc(F)cc3)ccc2O[C@@H]1CN(C)S(=O)(=O)c1ccc(F)cc1	inactive	inactive	inactive
Cc1cc(O)cc(=O)o1	inactive	inactive	inactive
C[C@@H]1CN([C@@H](C)CO)S(=O)(=O)c2ccc(C#CC3CC3)cc2O[C@@H]1CN(C)C(=O)Cc1ccncc1	inactive	inactive	inactive
COCC#Cc1cnc2c(c1)C(=O)N([C@H](C)CO)C[C@@H](C)[C@H](CN(C)C(=O)CCN1CCCCC1)O2	inactive	inactive	inactive
COc1ccc(NC(=O)N(C)C[C@H]2Oc3c(NC(=O)c4cnccn4)cccc3C(=O)N([C@@H](C)CO)C[C@@H]2C)cc1	inactive	inactive	inactive
CO[C@H]1C[C@@H]2CC[C@@H](C)[C@@](O)(O2)C(=O)C(=O)N2CCCC[C@H]2C(=O)O[C@H]([C@H](C)C[C@@H]2CC[C@@H](OCCO)[C@H](OC)C2)CC(=O)[C@H](C)/C=C(\C)[C@@H](O)[C@@H](OC)C(=O)[C@H](C)C[C@H](C)/C=C/C=C/C=C/1C	inactive	inactive	inactive
COC(=O)C=CC(C)=CC=CC(C)=CC=CC=C(C)C=CC=C(C)C=CC(=O)O	inactive	inactive	inactive
C[C@@H]1CN([C@H](C)CO)C(=O)c2cc(NS(=O)(=O)c3ccc(Cl)cc3)ccc2O[C@@H](C)CCCCO[C@@H]1CN(C)C(=O)C1CCCCC1	inactive	active	inactive
C=CCOC(=O)O[C@H]1[C@@H](OC)O[C@H](COC(=O)NCCCCCC(=O)NO)[C@@H](OC(=O)[C@H](CC=C)Cc2cccc(Br)c2)[C@@H]1OC(=O)[C@H](CC=C)Cc1ccccc1	inactive	inactive	inactive
COc1ccc(S(=O)(=O)Nc2ccc3c(c2)C(=O)N([C@H](C)CO)C[C@H](C)[C@H](CN(C)C(=O)NC(C)C)O3)cc1	inactive	inactive	inactive
COc1ccc(S(=O)(=O)Nc2ccc3c(c2)CC(=O)N([C@@H](C)CO)C[C@@H](C)[C@@H](CN(C)Cc2ccncc2)O3)cc1	inactive	inactive	inactive
